According to PubChem BioAssay AID1030 (National Center for Advancing Translational Sciences (NCATS), 2008):
Out of some 220,000 compounds screened, about 16,000 (7.3%) were called active. The shares of active, inactive and inconclusive entries below differ from those in the screen. Calls follow the shape of the dose curve; as a rule, active = well fitted inhibition curve with a large enough effect (not every such curve was filed as active); inconclusive = small, poorly fitted or top-dose-only effect, or another doubt; inactive = no such curve, though single readings can be large or run the other way. No potency is given beside an inconclusive call; the fits are too rough.

The compounds below were run against Aldehyde dehydrogenase 1A1 (Homo sapiens) (UniProt P00352) (assay: qHTS Assay for Inhibitors of Aldehyde Dehydrogenase 1 (ALDH1A1)). Details: Purified ALDH1A1, NADH fluorescence, propionaldehyde substrate; series mostly up to 75.3 µM.
Potency is read from the fitted curve at half-maximal effect; tags tell the direction and shape of the fitted curve.

UniProt P00352, sequence (P00352 whole entry, looked up): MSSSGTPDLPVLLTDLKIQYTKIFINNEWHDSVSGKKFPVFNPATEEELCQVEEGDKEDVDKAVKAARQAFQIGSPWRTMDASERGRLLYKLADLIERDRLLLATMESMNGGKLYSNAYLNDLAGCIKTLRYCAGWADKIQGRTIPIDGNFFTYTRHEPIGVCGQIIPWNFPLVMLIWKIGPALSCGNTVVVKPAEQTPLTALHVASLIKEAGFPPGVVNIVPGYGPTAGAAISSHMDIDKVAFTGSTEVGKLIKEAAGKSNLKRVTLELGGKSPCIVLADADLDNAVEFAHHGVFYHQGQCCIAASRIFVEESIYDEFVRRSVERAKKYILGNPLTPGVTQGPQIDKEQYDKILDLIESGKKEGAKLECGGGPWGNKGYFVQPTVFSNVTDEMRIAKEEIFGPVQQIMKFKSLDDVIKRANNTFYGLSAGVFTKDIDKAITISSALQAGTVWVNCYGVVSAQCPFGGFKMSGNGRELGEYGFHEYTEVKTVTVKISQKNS

| SMILES | Potency |
| --- | --- |
| O=c1cc(N2CCc3ccccc32)[nH]c(=O)n1-c1ccccc1 | inconclusive [inhibitor, single point] |
| Fc1cccc(-c2cc3nc4c(c(N5CCOCC5)n3n2)CCCC4)c1 | inconclusive [inhibitor, partial curve] |
| CCc1ccc(OCC(=O)N/N=C/c2cc([N+](=O)[O-])ccc2N2CCCCCC2)cc1 | inconclusive [inhibitor, partial curve] |
| COc1ccccc1Cn1nnc2c(=O)[nH]c(C3CCN(C(=O)c4ccccc4Cl)CC3)nc21 | inconclusive [inhibitor, single point] |
| CC(=O)OC1CC[C@@]2(C)C(CC[C@@]3(C)C2CC=C2C4CC(C)(C)CC[C@]4(C)CC[C@@]23C)C1(C)C (stereo not given in full) | inactive |
| Cc1ccc(OCCn2c(=O)oc3ccc(C)cc32)cc1 | inconclusive [inhibitor, single point] |
| CC(=O)Oc1ccc(N2C(=O)C3C4C=CC(CC4)C3C2=O)cc1[N+](=O)[O-] (stereo not given) | inactive |
| O=C(COC(=O)c1cccc(S(=O)(=O)N2CCOCC2)c1)Nc1ccc2c(c1)OCO2 | inactive |
| Cc1c(C(=O)Nc2cccc(Cl)c2)c2ccccn2c1CCc1ccncc1 | inconclusive [inhibitor, partial curve] |
| O=C(O)CSc1nnc(-c2ccc(S(=O)(=O)N3CCCC3)cc2)n1Cc1ccco1 | inconclusive [inhibitor, partial curve] |
| O=C(/C=C/c1ccc2c(c1)OCO2)NCCSCc1c(Cl)cccc1Cl | inconclusive [inhibitor, single point] |
| CS(=O)(=O)N(CC(=O)NC1CC2CCC1C2)c1cccc(C(F)(F)F)c1 (stereo not given) | inconclusive [inhibitor, single point] |
| Cc1ccccc1-c1nc(CS(=O)(=O)CC(=O)Nc2cc(F)ccc2F)c(C)o1 | inactive |
| Cc1ccccc1OCCN1C(=O)C(=O)c2cccc(C)c21 | active: 0.224 µM |
| COCCn1c(SCc2ccc(C(=O)OC)o2)nc2ccccc2c1=O | inactive |
| COc1ccc(-c2cc3ncc(C(C)=O)c(C)n3n2)cc1 | inconclusive [inhibitor, single point] |
| CC(CC(=O)O)CC(=O)Nc1ccccc1C(=O)O (stereo not given) | inactive |
| CCOc1ccc(NC(=O)CCCn2c(=S)[nH]c3ccsc3c2=O)cc1 | inactive |
| COc1ccc(-n2c(=O)c3ccccc3n(CC(=O)OCc3ccccc3)c2=O)cc1OC | inactive |
| COc1cc(NC(=O)C2CCCN2S(=O)(=O)c2cccc3cccnc23)cc(OC)c1OC (stereo not given) | inactive |
